Experimental data as given in article PMC1141267.
No constants are given. Whether binding was seen depends on the method and setting. In cells and extracts the contact can be indirect. Some results given as binding are weak or reduced against the parent protein; the word gives no strength. For some of these results: Where a sequence is shown, tags or fusion partners need not be part of it.

Amino acid sequences for entries named in this document (tags omitted).
UniProt Q9VCU9: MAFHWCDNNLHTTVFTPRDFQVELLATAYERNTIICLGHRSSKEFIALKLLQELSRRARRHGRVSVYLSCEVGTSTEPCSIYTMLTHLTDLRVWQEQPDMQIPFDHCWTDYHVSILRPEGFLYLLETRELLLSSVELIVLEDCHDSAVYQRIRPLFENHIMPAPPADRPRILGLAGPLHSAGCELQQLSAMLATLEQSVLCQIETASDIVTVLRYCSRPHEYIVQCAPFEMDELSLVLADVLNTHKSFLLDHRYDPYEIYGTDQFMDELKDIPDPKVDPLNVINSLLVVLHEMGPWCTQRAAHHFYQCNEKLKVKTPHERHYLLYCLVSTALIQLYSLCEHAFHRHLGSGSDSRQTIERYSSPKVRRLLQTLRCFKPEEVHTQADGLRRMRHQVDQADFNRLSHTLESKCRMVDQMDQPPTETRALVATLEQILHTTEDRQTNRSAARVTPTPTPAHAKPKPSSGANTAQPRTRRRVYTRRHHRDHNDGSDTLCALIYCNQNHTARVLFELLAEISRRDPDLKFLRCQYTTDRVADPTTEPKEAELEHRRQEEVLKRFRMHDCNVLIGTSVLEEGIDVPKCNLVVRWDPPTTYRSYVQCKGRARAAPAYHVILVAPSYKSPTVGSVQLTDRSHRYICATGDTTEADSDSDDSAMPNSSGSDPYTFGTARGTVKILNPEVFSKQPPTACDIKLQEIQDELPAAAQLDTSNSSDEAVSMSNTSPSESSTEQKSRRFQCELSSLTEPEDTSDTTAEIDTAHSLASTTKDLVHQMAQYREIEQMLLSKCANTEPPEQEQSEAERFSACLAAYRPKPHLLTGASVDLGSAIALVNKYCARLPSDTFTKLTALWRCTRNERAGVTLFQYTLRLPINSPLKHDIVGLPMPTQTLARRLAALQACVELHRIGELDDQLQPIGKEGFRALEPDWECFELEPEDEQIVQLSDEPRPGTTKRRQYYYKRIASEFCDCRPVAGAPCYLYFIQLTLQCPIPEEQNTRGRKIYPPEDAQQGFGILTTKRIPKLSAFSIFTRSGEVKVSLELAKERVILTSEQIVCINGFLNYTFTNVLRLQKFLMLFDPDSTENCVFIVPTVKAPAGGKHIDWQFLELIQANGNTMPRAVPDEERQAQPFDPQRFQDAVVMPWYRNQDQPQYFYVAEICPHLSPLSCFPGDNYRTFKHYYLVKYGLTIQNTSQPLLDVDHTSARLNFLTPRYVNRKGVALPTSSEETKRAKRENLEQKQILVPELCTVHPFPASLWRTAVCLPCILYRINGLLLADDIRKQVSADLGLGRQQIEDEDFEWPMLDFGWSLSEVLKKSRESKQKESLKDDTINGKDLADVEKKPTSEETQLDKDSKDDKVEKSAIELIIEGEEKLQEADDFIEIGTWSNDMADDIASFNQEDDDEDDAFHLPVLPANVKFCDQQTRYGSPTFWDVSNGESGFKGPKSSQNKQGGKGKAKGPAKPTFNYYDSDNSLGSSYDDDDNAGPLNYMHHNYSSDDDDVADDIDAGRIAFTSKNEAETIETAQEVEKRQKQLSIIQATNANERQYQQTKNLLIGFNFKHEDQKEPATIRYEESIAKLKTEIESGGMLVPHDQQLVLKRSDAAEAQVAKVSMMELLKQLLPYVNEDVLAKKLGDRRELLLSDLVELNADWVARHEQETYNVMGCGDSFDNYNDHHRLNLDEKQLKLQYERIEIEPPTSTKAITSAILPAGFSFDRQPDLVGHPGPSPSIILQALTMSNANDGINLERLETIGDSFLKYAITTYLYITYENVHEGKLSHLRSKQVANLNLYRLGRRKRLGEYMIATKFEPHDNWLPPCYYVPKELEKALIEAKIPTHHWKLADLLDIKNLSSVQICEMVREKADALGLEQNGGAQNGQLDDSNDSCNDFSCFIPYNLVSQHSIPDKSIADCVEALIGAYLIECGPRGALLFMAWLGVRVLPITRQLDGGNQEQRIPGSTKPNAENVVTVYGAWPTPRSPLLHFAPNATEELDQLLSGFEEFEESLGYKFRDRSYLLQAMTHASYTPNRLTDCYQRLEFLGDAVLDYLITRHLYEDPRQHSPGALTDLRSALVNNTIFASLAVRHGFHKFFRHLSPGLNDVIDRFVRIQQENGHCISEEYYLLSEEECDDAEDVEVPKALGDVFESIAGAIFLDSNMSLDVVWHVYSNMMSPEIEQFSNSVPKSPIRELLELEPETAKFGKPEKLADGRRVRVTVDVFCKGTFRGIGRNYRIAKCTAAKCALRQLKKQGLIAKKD
UniProt A1ZAW0: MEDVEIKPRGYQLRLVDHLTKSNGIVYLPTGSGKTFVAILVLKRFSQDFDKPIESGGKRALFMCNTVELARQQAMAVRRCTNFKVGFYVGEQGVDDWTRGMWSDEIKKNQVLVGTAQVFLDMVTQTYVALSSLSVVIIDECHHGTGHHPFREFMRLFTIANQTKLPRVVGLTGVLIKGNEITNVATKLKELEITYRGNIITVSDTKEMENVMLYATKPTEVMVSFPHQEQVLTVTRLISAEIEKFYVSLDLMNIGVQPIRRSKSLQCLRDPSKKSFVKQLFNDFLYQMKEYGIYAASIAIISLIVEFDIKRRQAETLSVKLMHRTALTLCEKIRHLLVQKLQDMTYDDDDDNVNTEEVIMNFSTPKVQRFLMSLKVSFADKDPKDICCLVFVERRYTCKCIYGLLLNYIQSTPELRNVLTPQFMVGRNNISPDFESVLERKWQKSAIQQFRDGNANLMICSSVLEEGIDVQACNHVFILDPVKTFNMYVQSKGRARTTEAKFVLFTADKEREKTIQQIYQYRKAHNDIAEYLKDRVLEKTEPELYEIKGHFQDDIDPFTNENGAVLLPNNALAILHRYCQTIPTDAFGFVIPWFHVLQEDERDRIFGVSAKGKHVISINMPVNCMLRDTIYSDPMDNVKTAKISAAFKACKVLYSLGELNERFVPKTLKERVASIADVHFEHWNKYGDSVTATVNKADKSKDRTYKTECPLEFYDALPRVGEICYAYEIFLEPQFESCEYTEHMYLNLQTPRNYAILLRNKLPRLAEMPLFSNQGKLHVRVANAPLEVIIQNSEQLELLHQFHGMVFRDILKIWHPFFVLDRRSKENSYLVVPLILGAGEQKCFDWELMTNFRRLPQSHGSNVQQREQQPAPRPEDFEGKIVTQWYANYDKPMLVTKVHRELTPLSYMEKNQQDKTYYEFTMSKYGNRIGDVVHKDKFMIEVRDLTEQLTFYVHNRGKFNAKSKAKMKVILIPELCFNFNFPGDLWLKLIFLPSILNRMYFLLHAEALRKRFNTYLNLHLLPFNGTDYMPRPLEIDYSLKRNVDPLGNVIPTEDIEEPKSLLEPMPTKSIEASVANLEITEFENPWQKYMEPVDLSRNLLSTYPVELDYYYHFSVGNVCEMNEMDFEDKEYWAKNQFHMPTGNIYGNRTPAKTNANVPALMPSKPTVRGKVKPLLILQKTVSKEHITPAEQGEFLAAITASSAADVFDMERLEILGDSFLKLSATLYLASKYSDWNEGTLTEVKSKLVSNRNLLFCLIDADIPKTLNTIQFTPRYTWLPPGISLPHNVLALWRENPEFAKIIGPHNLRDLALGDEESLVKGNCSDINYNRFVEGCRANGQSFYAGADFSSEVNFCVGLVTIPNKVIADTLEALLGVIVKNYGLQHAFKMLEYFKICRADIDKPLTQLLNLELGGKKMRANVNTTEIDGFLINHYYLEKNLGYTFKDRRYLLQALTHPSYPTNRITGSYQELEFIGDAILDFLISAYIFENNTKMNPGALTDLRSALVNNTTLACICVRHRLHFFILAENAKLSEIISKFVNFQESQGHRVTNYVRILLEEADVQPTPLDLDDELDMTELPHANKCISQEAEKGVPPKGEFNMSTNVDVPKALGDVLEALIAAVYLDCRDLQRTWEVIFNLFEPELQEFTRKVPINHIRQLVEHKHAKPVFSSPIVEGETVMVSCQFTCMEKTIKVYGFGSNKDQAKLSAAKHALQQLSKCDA

T1: myc-tagged Loqs protein isoform B (Drosophila melanogaster) (UniProt Q9VJY9)
T1 sequence: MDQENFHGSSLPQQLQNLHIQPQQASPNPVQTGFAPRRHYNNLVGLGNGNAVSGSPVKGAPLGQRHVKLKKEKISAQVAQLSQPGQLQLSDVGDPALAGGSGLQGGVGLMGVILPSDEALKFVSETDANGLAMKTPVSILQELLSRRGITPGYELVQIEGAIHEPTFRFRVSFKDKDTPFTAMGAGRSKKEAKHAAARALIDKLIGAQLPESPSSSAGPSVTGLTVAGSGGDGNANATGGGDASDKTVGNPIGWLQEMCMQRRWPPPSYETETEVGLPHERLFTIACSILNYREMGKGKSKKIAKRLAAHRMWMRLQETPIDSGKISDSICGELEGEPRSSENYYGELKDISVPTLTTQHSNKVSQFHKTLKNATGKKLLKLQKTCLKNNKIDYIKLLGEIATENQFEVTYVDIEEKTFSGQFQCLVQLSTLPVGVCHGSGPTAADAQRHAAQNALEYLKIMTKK

T2: myc-tagged Loqs protein isoform A (Drosophila melanogaster) (UniProt Q9VJY9)
T2 sequence: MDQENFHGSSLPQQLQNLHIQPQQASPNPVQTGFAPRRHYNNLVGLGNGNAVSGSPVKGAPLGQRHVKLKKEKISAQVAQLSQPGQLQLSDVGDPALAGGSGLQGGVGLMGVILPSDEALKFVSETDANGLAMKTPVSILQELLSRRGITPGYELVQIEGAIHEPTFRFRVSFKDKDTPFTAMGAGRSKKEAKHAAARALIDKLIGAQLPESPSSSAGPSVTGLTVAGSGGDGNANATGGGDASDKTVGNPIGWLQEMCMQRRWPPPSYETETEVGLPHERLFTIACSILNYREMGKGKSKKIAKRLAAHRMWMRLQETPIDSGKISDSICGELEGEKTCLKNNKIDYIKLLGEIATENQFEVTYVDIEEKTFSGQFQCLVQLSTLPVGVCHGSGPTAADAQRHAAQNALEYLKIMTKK


How the values were obtained:
[1] = biological target: T1, myc-tagged Loqs protein isoform B (Drosophila melanogaster); assay: co-IP; anti-myc (9E10) immunoprecipitation from lysates of transfected S2 cells, 4 °C, washes with lysis buffer with 1% Triton X-100; Western blot with anti-Dcr-1 or anti-Dcr-2
[2] = biological target: T2, myc-tagged Loqs protein isoform A (Drosophila melanogaster); assay: as above
[3] = biological target: Dicer-1 (Drosophila melanogaster (endogenous in S2 cells)) (UniProt Q9VCU9); assay: co-IP; anti-Dcr-1 immunoprecipitation from lysates of S2 cells transfected with myc-tagged GFP, Loqs PA or Loqs PB; Western blot with anti-myc
[4] = biological target: Dicer-1 (Drosophila melanogaster (endogenous in S2 cells)) (UniProt Q9VCU9); assay: co-IP; anti-Dcr-1 immunoprecipitation from S2 cell lysate; Western blot with anti-Loqs to detect endogenous Loqs isoforms

binding [1] | binding [3] | binding [4] | Molecule | also measured
 | binds |  | myc-tagged Loqs protein isoform B (protein, UniProt Q9VJY9-1 1-465) MDQENFHGSSLPQQLQNLHIQPQQASPNPVQTGFAPRRHYNNLVGLGNGNAVSGSPVKGAPLGQRHVKLKKEKISAQVAQLSQPGQLQLSDVGDPALAGGSGLQGGVGLMGVILPSDEALKFVSETDANGLAMKTPVSILQELLSRRGITPGYELVQIEGAIHEPTFRFRVSFKDKDTPFTAMGAGRSKKEAKHAAARALIDKLIGAQLPESPSSSAGPSVTGLTVAGSGGDGNANATGGGDASDKTVGNPIGWLQEMCMQRRWPPPSYETETEVGLPHERLFTIACSILNYREMGKGKSKKIAKRLAAHRMWMRLQETPIDSGKISDSICGELEGEPRSSENYYGELKDISVPTLTTQHSNKVSQFHKTLKNATGKKLLKLQKTCLKNNKIDYIKLLGEIATENQFEVTYVDIEEKTFSGQFQCLVQLSTLPVGVCHGSGPTAADAQRHAAQNALEYLKIMTKK | 
 |  | binds | Loqs protein isoform B (endogenous) (protein, UniProt Q9VJY9-1 1-465) MDQENFHGSSLPQQLQNLHIQPQQASPNPVQTGFAPRRHYNNLVGLGNGNAVSGSPVKGAPLGQRHVKLKKEKISAQVAQLSQPGQLQLSDVGDPALAGGSGLQGGVGLMGVILPSDEALKFVSETDANGLAMKTPVSILQELLSRRGITPGYELVQIEGAIHEPTFRFRVSFKDKDTPFTAMGAGRSKKEAKHAAARALIDKLIGAQLPESPSSSAGPSVTGLTVAGSGGDGNANATGGGDASDKTVGNPIGWLQEMCMQRRWPPPSYETETEVGLPHERLFTIACSILNYREMGKGKSKKIAKRLAAHRMWMRLQETPIDSGKISDSICGELEGEPRSSENYYGELKDISVPTLTTQHSNKVSQFHKTLKNATGKKLLKLQKTCLKNNKIDYIKLLGEIATENQFEVTYVDIEEKTFSGQFQCLVQLSTLPVGVCHGSGPTAADAQRHAAQNALEYLKIMTKK | 
 | binds |  | myc-tagged Loqs protein isoform A (protein, UniProt Q9VJY9-2 1-419) MDQENFHGSSLPQQLQNLHIQPQQASPNPVQTGFAPRRHYNNLVGLGNGNAVSGSPVKGAPLGQRHVKLKKEKISAQVAQLSQPGQLQLSDVGDPALAGGSGLQGGVGLMGVILPSDEALKFVSETDANGLAMKTPVSILQELLSRRGITPGYELVQIEGAIHEPTFRFRVSFKDKDTPFTAMGAGRSKKEAKHAAARALIDKLIGAQLPESPSSSAGPSVTGLTVAGSGGDGNANATGGGDASDKTVGNPIGWLQEMCMQRRWPPPSYETETEVGLPHERLFTIACSILNYREMGKGKSKKIAKRLAAHRMWMRLQETPIDSGKISDSICGELEGEKTCLKNNKIDYIKLLGEIATENQFEVTYVDIEEKTFSGQFQCLVQLSTLPVGVCHGSGPTAADAQRHAAQNALEYLKIMTKK | 

The next lines start with the molecule.

Molecule | binding [1] | binding [3] | binding [4] | also measured
Dicer-2 (from UniProt A1ZAW0 1-1722) (enzyme) | no binding |  |  | 
Dicer-1 (from UniProt Q9VCU9 1-2249) (enzyme) | binds |  |  | binding [2]: binds
Loqs protein isoform A (endogenous) (protein, UniProt Q9VJY9-2 1-419) MDQENFHGSSLPQQLQNLHIQPQQASPNPVQTGFAPRRHYNNLVGLGNGNAVSGSPVKGAPLGQRHVKLKKEKISAQVAQLSQPGQLQLSDVGDPALAGGSGLQGGVGLMGVILPSDEALKFVSETDANGLAMKTPVSILQELLSRRGITPGYELVQIEGAIHEPTFRFRVSFKDKDTPFTAMGAGRSKKEAKHAAARALIDKLIGAQLPESPSSSAGPSVTGLTVAGSGGDGNANATGGGDASDKTVGNPIGWLQEMCMQRRWPPPSYETETEVGLPHERLFTIACSILNYREMGKGKSKKIAKRLAAHRMWMRLQETPIDSGKISDSICGELEGEKTCLKNNKIDYIKLLGEIATENQFEVTYVDIEEKTFSGQFQCLVQLSTLPVGVCHGSGPTAADAQRHAAQNALEYLKIMTKK |  |  | binds | 
